# Experimental data taken from PubChem BioAssay (NCATS).
# Several values for one entry are separate records, joined by “and”; a condition that tells them apart may be missing. Equal values may be shown once. The shares of active, inactive and inconclusive entries below differ from those in the screen. For some of these results: Potencies of inconclusive entries are doubtful fits and often do not repeat. Activity calls are given as the source filed them. Unless noted, the call rests on the fitted dose curve.
# How the values were obtained:
# [1] = Cell Viability - Jurkat (AID 426;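 active means dose-dependent loss of cell ATP signal giving a full or clear fitted curve, ranked by lower potency value; inconclusive means weak partial curve or response only at the top dose; inactive means no loss of viability signal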; further: potency means the concentration at half of the fitted maximal effect); settings: qHTS
# How it was run: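 Luminescent ATP read-out (CellTiter-Glo, 20 min at room temperature) after 40 hr compound exposure at 37 °C of Jurkat E6-1 cells, 5000/well. Decreased ATP taken as cytotoxicity; AC50 from standard Hill equation.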
# [2] = Cell Viability - Hek293 (AID 427;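 active means compounds whose dose-response curve shows a full or clear partial loss of cell viability, called from curve shape rather than a numeric limit; inconclusive means weak partial curves or an effect only at the top dose; inactive means no dose-dependent loss of viability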;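 further: potency means the concentration at half of the fitted maximal effect; cells exposed to compound for 40 hours at 37 °C before reading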); settings: qHTS
# How it was run: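 HEK293 cells in complete medium were exposed to compound for 40 hr at 37 °C, then cellular ATP was read by CellTiter-Glo luminescence. Data were normalized to DMSO (basal) and 100 uM tamoxifen (100% inhibition), and AC50 came from Hill fits.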
# [3] = Cell Viability - HepG2 (AID 433); settings: qHTS;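 further: potency means the concentration at half of the fitted maximal effect; potency for ATP loss meaning cytotoxicity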
# How it was run: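 Read-out is luciferase-based quantitation of cellular ATP as a measure of viable HepG2 cells after 40 h treatment at 37 °C. Signal decrease is scaled between DMSO-only and 100 uM tamoxifen controls, with AC50 fitted by the Hill equation.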
# [4] = Cell Viability - MRC5 (AID 434); settings: MRC5 lung fibroblast viability, qHTS;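 further: potency means the concentration at half of the fitted maximal effect; potency reflects cytotoxicity seen as loss of intracellular ATP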
# How it was run: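 AC50 values come from Hill-equation fits of intracellular ATP loss, measured by CellTiter-Glo luminescence. Normal lung fibroblasts (MRC5) had 40 hr compound treatment at 37 C, normalized between DMSO and 100 uM tamoxifen.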
# [5] = Cell Viability - BJ (AID 421); settings: BJ fibroblast viability, qHTS;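 further: potency means the concentration at half of the fitted maximal effect; cells exposed to compound for 40 hours at 37 °C before readout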
# How it was run: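 Normal human BJ foreskin fibroblasts, 1500/well in complete medium, treated 40 hr at 37 °C. Cellular ATP by CellTiter-Glo luminescence; normalized to DMSO and 100 uM tamoxifen, AC50 from Hill fit.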
# [6] = Cell Viability - SK-N-SH (AID 435); settings: SK-N-SH neuroblastoma cell viability qHTS;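 further: potency means the concentration at half of the fitted maximal effect; compound exposure lasted 40 h at 37 °C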
# How it was run: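 Luminescent ATP signal served as the viability read-out after 40 hours of compound treatment of human neuroblastoma SK-N-SH cells. Concentration-response data, scaled between DMSO and 100 uM tamoxifen, gave AC50 values by standard Hill modeling.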
# [7] = AP1 Signaling Pathway (AID 357; active means well fitted curve in either direction with a large enough effect, not every such curve was filed as active; inconclusive means small, poorly fitted or top-dose-only effect, or another doubt; further: top concentration of the series differs between compounds; on the % scale 0 is the no-effect control and ±100 the full control effect); settings: ME-180 AP-1-bla reporter, EGF-induced, beta-lactamase ratio, 5 h; at 17.2 µM (top of the series)
# How it was run: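 ME-180 cells with beta-lactamase reporter under AP-1 response element, stimulated with EC50 EGF; compounds tested in titration series, 5 h at 37 °C. CCF4 substrate added 2.5 h at room temperature; 460/530 nm emission ratio gave %activity and AC50.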
# [8] = NFAT Signaling Pathway (AID 444; active means well fitted curve in either direction with a large enough effect, not every such curve was filed as active; inconclusive means small, poorly fitted or top-dose-only effect, or another doubt;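 further: carbachol stimulus at about its EC50 of 1 µM final; on the % scale 0 is the no-effect control and ±100 the full control effect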); settings: Jurkat NFAT-bla M1, carbachol, beta-lactamase ratio, 5 h
# How it was run: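 Read-out: CCF4 FRET ratio (460 nm/530 nm) after 1 h RT dye loading, used for %activity and AC50 from titration series. Cells: Jurkat NFAT-β-lactamase/M1 line, treated with compound plus 1 uM carbachol for 5 h, 37 °C.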
# [9] = Stat Signaling Pathway (AID 446; active means well fitted curve in either direction with a large enough effect, not every such curve was filed as active; inconclusive means small, poorly fitted or top-dose-only effect, or another doubt;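 further: ME-180 cervical cancer cells given 40 pM IL-6 alongside compound; SIE-controlled beta-lactamase reporter measured as 460/530 nm FRET emission ratio; top concentration of the series differs between compounds; on the % scale 0 is the no-effect control and ±100 the full control effect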); settings: ME-180 (cervical carcinoma) SIE beta-lactamase reporter, IL-6 stimulated, 5 h
# How it was run: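 Normalization used AC90 stimulation (300 pM IL-6) and AC90 inhibition (125 nM pan-JAK inhibitor at 40 pM IL-6). The underlying signal is SIE-driven beta-lactamase in ME-180 cells after 5 h IL-6 exposure with compound.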
# Tags describe the fitted curve by direction and shape.
structure (smiles),measurement,setting,value
[Cl-].[Cl-].[Hg+2],Potency,[1],active: 25.3 µM
same,Potency,[2],active: 19.4 µM
same,Potency,[3],inconclusive: 82.3 µM [single point]
same,Potency,[4],active: 33.4 µM
C[C@]12C/C(=C/O)C(=O)C[C@@H]1CC[C@@H]1[C@@H]2CC[C@@]2(C)[C@H]1CC[C@]2(C)O,Potency,[5],inconclusive: 75.3 µM [single point]
same,Potency,[2],inconclusive: 102 µM [single point]
same,Potency,[6],inconclusive: 91.7 µM [single point]
O=c1c2ccccc2[se]n1-c1ccccc1,"activity change, negative = inhibition",[7],inconclusive: 0.655% [activator]
same,"activity change, negative = inhibition",[8]; at 17.2 µM (top of the series),inconclusive: -31.6% [inhibitor] and inconclusive: -94% [inhibitor]
same,"activity change, negative = inhibition",[8]; at 38 µM (top of the series),inconclusive: -39.2% [inhibitor]
same,"activity, negative = inhibition",[9]; at 17.2 µM (top of the series),inconclusive: -46.6% [inhibitor] and inconclusive: -41.6% [inhibitor]
same,"activity, negative = inhibition",[9]; at 38 µM (top of the series),inconclusive: 130% [inhibitor]
Clc1ccc(COC(Cn2ccnc2)c2ccc(Cl)cc2Cl)cc1 (configuration not stated),Potency,[5],inconclusive: 92.4 µM [single point]
same,Potency,[2],inconclusive: 68.9 µM [partial curve]
same,Potency,[3],inconclusive: 74.9 µM [partial curve]
same,Potency,[6],inconclusive: 53.3 µM [partial curve]
COc1ccc(C(c2ccc(OC)cc2)C(Cl)(Cl)Cl)cc1,Potency,[1],inconclusive: 130 µM [partial curve] and inconclusive: 117 µM [partial curve]
same,Potency,[2],inconclusive: 96.7 µM [single point]
CN(C)C(=S)SSC(=S)N(C)C,Potency,[5],inconclusive: 40 µM [partial curve]
same,Potency,[1],active: 12.5 µM
same,Potency,[2],active: 14.5 µM
same,Potency,[6],active: 8.36 µM
